Results from US9439918B2 (priority 2008, dated 2016).
≈ marks a conversion by molar mass, not a printed value. Where “and” joins values, the source holds several entries; their conditions need not be identical. Equal values may be shown once. Read-outs that look alike come from different tables or passages of the source. Marks after values point to notes of the source that are not given here.

Legend:
E. faecalis (ATCC 29212) = assay: Time kill curve; assay type: cell-based; conditions: tested at 2×, 4×, 8×MIC
[1] = system: S. epidermidis (095-2777A); assay: Time kill curve; assay type: cell-based; conditions: tested at 2×, 4×, 8×MIC
S. aureus (ATCC 25923) [2] = assay type: cell-based
THP-1 macrophages = assay: Cellular accumulation, microbiological assay; assay type: in vitro ADME, human
S. pyogenes (088-11708A) = assay: Time kill curve; assay type: cell-based; conditions: tested at 2×, 4×, 8×MIC
S. aureus (ATCC 29213) = assay: Time kill curve; assay type: cell-based; conditions: tested at 2×, 4×, 8×MIC
S. pneumoniae (075-241B) = assay: Time kill curve; assay type: cell-based; conditions: tested at 2×, 4×, 8×MIC
S. mitis (112-1885A) = assay: Time kill curve; assay type: cell-based; conditions: tested at 2×, 4×, 8×MIC
[3] = system: phagocytized S. aureus ATCC 25923; assay type: cell-based, Staphylococcus aureus
S. aureus (ATCC 25923) [4] = assay type: cell-based; conditions: broth
[5] = system: Viridans group streptococci (5); assay: MBC/MIC ratio; conditions: 5 tested
S. aureus (10) = assay: MBC/MIC ratio; conditions: 10 tested
Enterococcus spp. (5) = assay: MBC/MIC ratio; conditions: 5 tested
[6] = system: Coagulase-neg. staphylococci (5); assay: MBC/MIC ratio; conditions: 5 tested
[7] = system: β-haemolytic streptococci (5); assay: MBC/MIC ratio; conditions: 5 tested
S. pneumoniae (10) = assay: MBC/MIC ratio; conditions: 10 tested
S. aureus 25923 Ery-S = assay type: cell-based; conditions: broth microdilution

## CC[C@H]1OC(=O)[C@@](C)(F)C(=O)[C@H](C)[C@@H](OC2OC(C)CC(N(C)C)C2O)[C@@](C)(OC)C[C@@H](C)C(=O)[C@H](C)[C@H]2N(CCCCn3cc(-c4cccc(N)c4)nn3)C(=O)O[C@]12C (stereo partly drawn) [CEM-101, 11-N-4-(3-aminophenyl)-[1,2,3]triazol-1-yl]-butyl-5-desosaminyl-3-oxo-2-fluoro-erythronolide A,-11,12-cyclic carbamate]
E. faecalis (ATCC 29212)
  Antimicrobial activity (time kill curve): Static
[1]
  Antimicrobial activity (time kill curve): rapid bactericidal activity
S. aureus (ATCC 25923) [2]; 0.7 mg/liter, THP-1 macrophages
  time-kill effect on CFU: significantly decrease CFU
S. aureus (ATCC 25923) [2]; 4 mg/liter, THP-1 macrophages
  reduction of CFU: approximately 1.5 log 10 CFU
S. aureus (ATCC 25923) [2]; all situations (broth and THP-1, 0.7 and 4 mg/liter)
  time within which the maximal decrease of CFU was obtained: ≤ 1 h
THP-1 macrophages; cells incubated with 10 mg/L for 1 h, then drug-free medium
  efflux: time for release of half of the cell-associated drug: approximately 10 min
THP-1 macrophages; gemfibrozil, MRP inhibitor
  effect of gemfibrozil on cellular accumulation: did not affect
THP-1 macrophages; monensin, proton ionophore
  effect of monensin on cellular accumulation: almost completely suppressed
THP-1 macrophages; pH brought from 7 to 6
  effect of acidic pH on cellular accumulation: reduced
THP-1 macrophages; verapamil, Pgp inhibitor
  effect of verapamil on cellular accumulation: without affecting
THP-1 macrophages; within 24 h, extracellular concentration 10 mg/liter
  accumulation level: about 375 fold
S. pyogenes (088-11708A)
  Antimicrobial activity (time kill curve): rapid bactericidal activity
S. aureus (ATCC 29213)
  Antimicrobial activity (time kill curve): rapid bactericidal activity
S. pneumoniae (075-241B)
  Antimicrobial activity (time kill curve): Static
S. mitis (112-1885A)
  Antimicrobial activity (time kill curve): rapid bactericidal activity
[3]
  Emax, Δ log10 CFU at 24 h compared to the post-phagocytosis inoculum: −0.86 Δ log10 CFU
  Intracellular activity (24 h), Emax: −0.8 ± 0.2 Δ log cfu from time 0 h
  Intracellular activity (24 h), Static dose: ~0.02 mg/L
  Intracellular activity, Static dose: ~0.02 mg/L and ~0.03 mg/L
  Static dose: ~0.02 mg/L
  reduction of the intracellular inoculum (Emax): ~1 log
S. aureus (ATCC 25923) [4]; 0.7 mg/liter
  time-kill effect on CFU: significantly decrease CFU
S. aureus (ATCC 25923) [4]; 4 mg/liter
  time to achieve the antibacterial effect: 1 h

## CC[C@H]1OC(=O)[C@H](C)[C@@H](O[C@H]2C[C@@](C)(OC)[C@@H](O)[C@H](C)O2)[C@H](C)[C@@H](O[C@@H]2O[C@H](C)C[C@H](N(C)C)[C@H]2O)[C@](C)(OC)C[C@@H](C)C(=O)[C@H](C)[C@@H](O)[C@]1(C)O [CLR, clarithromycin]
[5]
  No. of strains with MBC/MIC value of ≧32: 3^b
S. aureus (10)
  No. of strains with MBC/MIC value of 1: 0
  No. of strains with MBC/MIC value of 2: 0
  No. of strains with MBC/MIC value of 4: 0
  No. of strains with MBC/MIC value of 8: 0
  No. of strains with MBC/MIC value of 16: 0
  No. of strains with MBC/MIC value of ≧32: 6^b
Enterococcus spp. (5)
  No. of strains with MBC/MIC value of 1: 0
  No. of strains with MBC/MIC value of 2: 0
  No. of strains with MBC/MIC value of 4: 0
  No. of strains with MBC/MIC value of 8: 0
  No. of strains with MBC/MIC value of 16: 0
  No. of strains with MBC/MIC value of ≧32: 2^b
[6]
  No. of strains with MBC/MIC value of ≧32: 4^b
[7]
  No. of strains with MBC/MIC value of ≧32: 2^b
S. pneumoniae (10)
  No. of strains with MBC/MIC value of 1: 2
  No. of strains with MBC/MIC value of 2: 3
  No. of strains with MBC/MIC value of 4: 1
  No. of strains with MBC/MIC value of 8: 0
  No. of strains with MBC/MIC value of 16: 0

## CC[C@H]1OC(=O)[C@H](C)[C@@H](OC2CC(C)(OC)C(O)C(C)O2)[C@H](C)[C@@H](OC2OC(C)CC(N(C)C)C2O)[C@@](C)(OC)C[C@@H](C)C(=O)[C@H](C)[C@H]2N(CCCCn3cc(-c4ccccn4)nn3)C(=O)O[C@]12C (stereo partly drawn) [Entry 20a]
S. aureus 25923 Ery-S
  MIC, S. aureus 25923 Ery-S: 0.25 µg/mL (≈ 0.257 µM)

## CC[C@H]1OC(=O)[C@H](C)[C@@H](OC2CC(C)(OC)C(O)C(C)O2)[C@H](C)[C@@H](OC2OC(C)CC(N(C)C)C2O)[C@@](C)(OC)C[C@@H](C)C(=O)[C@H](C)[C@H]2N(CCCCn3cc(-c4cccnc4)nn3)C(=O)O[C@]12C (stereo partly drawn) [Entry 20b]
S. aureus 25923 Ery-S
  MIC, S. aureus 25923 Ery-S: 0.25 µg/mL (≈ 0.257 µM)

## CC[C@H]1OC(=O)[C@H](C)[C@@H](OC2CC(C)(OC)C(O)C(C)O2)[C@H](C)[C@@H](OC2OC(C)CC(N(C)C)C2O)[C@@](C)(OC)C[C@@H](C)C(=O)[C@H](C)[C@H]2N(CCCCn3cc(-c4cccc(N)c4)nn3)C(=O)O[C@]12C (stereo partly drawn) [Entry 20c]
S. aureus 25923 Ery-S
  MIC, S. aureus 25923 Ery-S: 1 µg/mL (≈ 1.01 µM)

## CC[C@H]1OC(=O)[C@H](C)[C@@H](OC2CC(C)(OC)C(O)C(C)O2)[C@H](C)[C@@H](OC2OC(C)CC(N(C)C)C2O)[C@@](C)(OC)C[C@@H](C)C(=O)[C@H](C)[C@H]2N(CCCCn3cc(COc4c(Cl)cccc4Cl)nn3)C(=O)O[C@]12C (stereo partly drawn) [Entry 20d]
S. aureus 25923 Ery-S
  MIC, S. aureus 25923 Ery-S: 1 µg/mL (≈ 0.934 µM)

## CC[C@H]1OC(=O)[C@H](C)[C@@H](OC2CC(C)(OC)C(O)C(C)O2)[C@H](C)[C@@H](OC2OC(C)CC(N(C)C)C2O)[C@@](C)(OC)C[C@@H](C)C(=O)[C@H](C)[C@H]2N(CCCCn3cc(Cn4nnc5ccccc54)nn3)C(=O)O[C@]12C (stereo partly drawn) [Entry 20e]
S. aureus 25923 Ery-S
  MIC, S. aureus 25923 Ery-S: ≦0.25 μg/mL

## CC[C@H]1OC(=O)[C@H](C)C(=O)[C@H](C)[C@@H](O[C@@H]2O[C@H](C)C[C@H](N(C)C)[C@H]2O)[C@](C)(OC)C[C@@H](C)C(=O)[C@H](C)[C@H]2N(CCCCn3cnc(-c4cccnc4)c3)C(=O)O[C@]12C [TEL, telithromycin]
S. aureus (10)
  No. of strains with MBC/MIC value of 1: 0
  No. of strains with MBC/MIC value of 2: 0
  No. of strains with MBC/MIC value of 4: 0
  No. of strains with MBC/MIC value of 8: 0
  No. of strains with MBC/MIC value of 16: 0
  No. of strains with MBC/MIC value of ≧32: 10
Enterococcus spp. (5)
  No. of strains with MBC/MIC value of 1: 0
  No. of strains with MBC/MIC value of 2: 0
  No. of strains with MBC/MIC value of 4: 0
  No. of strains with MBC/MIC value of 8: 0
  No. of strains with MBC/MIC value of 16: 0
  No. of strains with MBC/MIC value of ≧32: 5
S. pneumoniae (10)
  No. of strains with MBC/MIC value of 1: 2
  No. of strains with MBC/MIC value of 2: 6^a
  No. of strains with MBC/MIC value of 4: 0
  No. of strains with MBC/MIC value of 8: 0
  No. of strains with MBC/MIC value of 16: 0
  No. of strains with MBC/MIC value of ≧32: 2
